From the supplement of paper PMC10369915
This is one part of the list. No stated cut-off is given here; in the data, active = 3.2 or more and inactive = the rest. Most of these values are background signal.

Experiments:
Assay in all cases: enrichment score (SH2-bound / input frequency) (ratio); bacterial display of known human phosphotyrosine sites (pTyr-Var adds point mutants) read by sequencing; higher = stronger binding; tyrosines were phosphorylated by kinases first
Details in all cases: peptide library: pTyr-Var
SHP2 C-SH2 domain E139D = molecular target: SHP2 C-SH2 domain E139D
[1] = molecular target: SHP2 C-SH2 domain wild-type
SHP2 N-SH2 domain L43F = molecular target: SHP2 N-SH2 domain L43F
SHP2 N-SH2 domain T42A = molecular target: SHP2 N-SH2 domain T42A
SHP2 N-SH2 domain T52S = molecular target: SHP2 N-SH2 domain T52S
[2] = molecular target: SHP2 N-SH2 domain wild-type

Measured: enrichment score
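Further: displayed peptides selected on beads carrying the immobilized SH2 domain, with library peptides lacking any tyrosine serving as negative controls.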

TFYQMYDKGLV [IARS2_Y231]
inactive: SHP2 C-SH2 domain E139D 0.969 | [1] 1.04 | SHP2 N-SH2 domain L43F 0.982 | SHP2 N-SH2 domain T42A 0.92 | SHP2 N-SH2 domain T52S 1.06 | [2] 0.938

IGLHAYGDQYR [IDH1_Y135_R132L]
inactive: SHP2 C-SH2 domain E139D 0.816 | [1] 0.891 | SHP2 N-SH2 domain L43F 0.847 | SHP2 N-SH2 domain T42A 0.816 | SHP2 N-SH2 domain T52S 0.792 | [2] 0.909

RVYRDYVLKSA [HTATIP2_Y111_D108Y]
inactive: SHP2 C-SH2 domain E139D 1.25 | [1] 0.944 | SHP2 N-SH2 domain L43F 0.842 | SHP2 N-SH2 domain T42A 1.02 | SHP2 N-SH2 domain T52S 1.37 | [2] 1.15

NNDLCYWVPEL [IARS1_Y434]
inactive: SHP2 C-SH2 domain E139D 1.03 | [1] 1 | SHP2 N-SH2 domain L43F 0.899 | SHP2 N-SH2 domain T42A 0.877 | SHP2 N-SH2 domain T52S 0.849 | [2] 1.11

MKNQKYGRIIM [HSD17B4_Y143_K140N]
inactive: SHP2 C-SH2 domain E139D 1.24 | [1] 1.13 | SHP2 N-SH2 domain L43F 1.22 | SHP2 N-SH2 domain T42A 1.05 | SHP2 N-SH2 domain T52S 0.898 | [2] 0.89

EIEFLYNENTV [IARS1_Y680]
inactive: SHP2 C-SH2 domain E139D 0.764 | [1] 0.745 | SHP2 N-SH2 domain L43F 0.688 | SHP2 N-SH2 domain T42A 0.666 | SHP2 N-SH2 domain T52S 0.801 | [2] 0.594

GSSSSCGQHGS [HRNR_Y517_Y517C]
inactive: SHP2 C-SH2 domain E139D 0.873 | [1] 0.737 | SHP2 N-SH2 domain L43F 0.805 | SHP2 N-SH2 domain T42A 0.564 | SHP2 N-SH2 domain T52S 0.745 | [2] 0.985

NTGLDYIKFTW [HRH1_Y386]
inactive: SHP2 C-SH2 domain E139D 1.06 | [1] 1.16 | SHP2 N-SH2 domain L43F 1.71 | SHP2 N-SH2 domain T42A 2.8 | SHP2 N-SH2 domain T52S 1.9 | [2] 1.19

ETAENYLGHTA [HSPA9_Y181]
inactive: SHP2 C-SH2 domain E139D 0.636 | [1] 0.518 | SHP2 N-SH2 domain L43F 0.667 | SHP2 N-SH2 domain T42A 0.529 | SHP2 N-SH2 domain T52S 0.589 | [2] 0.538

IGHHAYGDQFR [IDH1_Y135_R132H_YF]
inactive: SHP2 C-SH2 domain E139D 1.68 | [1] 1.42 | SHP2 N-SH2 domain L43F 1.42 | SHP2 N-SH2 domain T42A 1.5 | SHP2 N-SH2 domain T52S 1.69 | [2] 1.58

KKILCYIQGGS [HYDIN_Y4610_N4606K]
inactive: SHP2 C-SH2 domain E139D 0.957 | [1] 1.19 | SHP2 N-SH2 domain L43F 0.912 | SHP2 N-SH2 domain T42A 0.961 | SHP2 N-SH2 domain T52S 0.824 | [2] 1.13

AGKEEYSAMRD [HRAS_Y64_Q61K]
inactive: SHP2 C-SH2 domain E139D 0.518 | [1] 0.502 | SHP2 N-SH2 domain L43F 0.459 | SHP2 N-SH2 domain T42A 0.483 | SHP2 N-SH2 domain T52S 0.452 | [2] 0.55

RVDRDYVLKSA [HTATIP2_Y111]
inactive: SHP2 C-SH2 domain E139D 0.751 | [1] 0.741 | SHP2 N-SH2 domain L43F 0.87 | SHP2 N-SH2 domain T42A 0.808 | SHP2 N-SH2 domain T52S 0.764 | [2] 0.986

CFTGKYTLPPG [HSPB1_Y142_R140G]
inactive: SHP2 C-SH2 domain E139D 0.962 | [1] 1.11 | SHP2 N-SH2 domain L43F 1.29 | SHP2 N-SH2 domain T42A 0.738 | SHP2 N-SH2 domain T52S 0.99 | [2] 1.1

SSWPDYVRPLP [HSPB1_Y54_G53D]
inactive: SHP2 C-SH2 domain E139D 1.12 | [1] 0.991 | SHP2 N-SH2 domain L43F 0.929 | SHP2 N-SH2 domain T42A 0.861 | SHP2 N-SH2 domain T52S 0.905 | [2] 0.98

ITVPAYFNDSQ [HSPA9_Y196]
inactive: SHP2 C-SH2 domain E139D 1.01 | [1] 1.06 | SHP2 N-SH2 domain L43F 0.984 | SHP2 N-SH2 domain T42A 1.02 | SHP2 N-SH2 domain T52S 1.17 | [2] 1.15

MFKPMYALFRT [HUWE1_Y4078_N4075K]
inactive: SHP2 C-SH2 domain E139D 2.42 | [1] 2.18 | SHP2 N-SH2 domain L43F 2.27 | SHP2 N-SH2 domain T42A 2.09 | SHP2 N-SH2 domain T52S 2.24 | [2] 1.8

LIGRRCDDPEV [HSPA9_Y128_Y128C]
inactive: SHP2 C-SH2 domain E139D 0.394 | [1] 0.384 | SHP2 N-SH2 domain L43F 0.201 | SHP2 N-SH2 domain T42A 0.391 | SHP2 N-SH2 domain T52S 0.532 | [2] 0.708

TSFQMYDKGLV [IARS2_Y231_F227S_YF]
inactive: SHP2 C-SH2 domain E139D 0.741 | [1] 0.52 | SHP2 N-SH2 domain L43F 0.842 | SHP2 N-SH2 domain T42A 0.508 | SHP2 N-SH2 domain T52S 0.607 | [2] 0.603

ILKPDYQPLAI [HYDIN_Y1072]
inactive: SHP2 C-SH2 domain E139D 1.33 | [1] 0.988 | SHP2 N-SH2 domain L43F 1.12 | SHP2 N-SH2 domain T42A 0.721 | SHP2 N-SH2 domain T52S 1.02 | [2] 1.14

QDEHGYISLCF [HSPB1_Y133_R136L]
inactive: SHP2 C-SH2 domain E139D 0.788 | [1] 1.27 | SHP2 N-SH2 domain L43F 1.32 | SHP2 N-SH2 domain T42A 1.59 | SHP2 N-SH2 domain T52S 1.34 | [2] 1.85

LIGRGYDDPEV [HSPA9_Y128_R127G]
inactive: SHP2 C-SH2 domain E139D 1.07 | [1] 0.705 | SHP2 N-SH2 domain L43F 1.11 | SHP2 N-SH2 domain T42A 0.769 | SHP2 N-SH2 domain T52S 1.15 | [2] 0.897

DVAKEYGHLLP [HRC_Y99_S96A]
inactive: SHP2 C-SH2 domain E139D 0.63 | [1] 0.63 | SHP2 N-SH2 domain L43F 0.628 | SHP2 N-SH2 domain T42A 0.73 | SHP2 N-SH2 domain T52S 0.636 | [2] 0.726

EIEFLYNENMV [IARS1_Y680_T684M]
inactive: SHP2 C-SH2 domain E139D 1.12 | [1] 0.952 | SHP2 N-SH2 domain L43F 0.651 | SHP2 N-SH2 domain T42A 0.754 | SHP2 N-SH2 domain T52S 0.733 | [2] 0.765

QRMGTYGVRAA [ICAM2_Y260]
inactive: SHP2 C-SH2 domain E139D 0.587 | [1] 0.638 | SHP2 N-SH2 domain L43F 0.663 | SHP2 N-SH2 domain T42A 0.539 | SHP2 N-SH2 domain T52S 0.575 | [2] 0.78

IGHHAYGDQYR [IDH1_Y135_R132H]
inactive: SHP2 C-SH2 domain E139D 2.32 | [1] 1.84 | SHP2 N-SH2 domain L43F 1.91 | SHP2 N-SH2 domain T42A 1.9 | SHP2 N-SH2 domain T52S 1.85 | [2] 1.61

DTKAFYPEEIS [HSPA1A_Y115_E110D]
inactive: SHP2 C-SH2 domain E139D 0.696 | [1] 0.808 | SHP2 N-SH2 domain L43F 0.798 | SHP2 N-SH2 domain T42A 0.582 | SHP2 N-SH2 domain T52S 0.714 | [2] 0.743

IGCHAYGDQYR [IDH1_Y135_R132C]
inactive: SHP2 C-SH2 domain E139D 1.02 | [1] 1.42 | SHP2 N-SH2 domain L43F 0.921 | SHP2 N-SH2 domain T42A 1.01 | SHP2 N-SH2 domain T52S 0.923 | [2] 1.46

AKVKPYVNGTS [IBTK_Y1064]
inactive: SHP2 C-SH2 domain E139D 0.979 | [1] 1.15 | SHP2 N-SH2 domain L43F 0.879 | SHP2 N-SH2 domain T42A 1.06 | SHP2 N-SH2 domain T52S 0.8 | [2] 0.831

TSYQMYDKGLV [IARS2_Y231_F227S]
inactive: SHP2 C-SH2 domain E139D 0.693 | [1] 0.722 | SHP2 N-SH2 domain L43F 0.81 | SHP2 N-SH2 domain T42A 0.926 | SHP2 N-SH2 domain T52S 0.752 | [2] 0.718

VISNAYVDLSP [HSD17B4_Y602_A606S]
inactive: SHP2 C-SH2 domain E139D 1.02 | [1] 0.955 | SHP2 N-SH2 domain L43F 1.01 | SHP2 N-SH2 domain T42A 3.09 | SHP2 N-SH2 domain T52S 0.854 | [2] 1.15

NTGLEYIKFTW [HRH1_Y386_D385E]
active: SHP2 N-SH2 domain T42A 4.48 | SHP2 N-SH2 domain T52S 3.4
inactive: SHP2 C-SH2 domain E139D 1.26 | [1] 1.63 | SHP2 N-SH2 domain L43F 2.69 | [2] 1.39

ETKAFYPEEIS [HSPA1A_Y115]
inactive: SHP2 C-SH2 domain E139D 0.691 | [1] 0.821 | SHP2 N-SH2 domain L43F 0.792 | SHP2 N-SH2 domain T42A 0.693 | SHP2 N-SH2 domain T52S 0.77 | [2] 0.861

MFNPMYALFRT [HUWE1_Y4078]
inactive: SHP2 C-SH2 domain E139D 1.45 | [1] 1.76 | SHP2 N-SH2 domain L43F 1.48 | SHP2 N-SH2 domain T42A 1.36 | SHP2 N-SH2 domain T52S 1.4 | [2] 1.46

QDEHGYIFRCF [HSPB1_Y133_S135F]
inactive: SHP2 C-SH2 domain E139D 0.306 | [1] 0.58 | SHP2 N-SH2 domain L43F 0.641 | SHP2 N-SH2 domain T42A 0.53 | SHP2 N-SH2 domain T52S 0.674 | [2] 0.765

REESTYLPLTS [ICAM3_Y527]
inactive: SHP2 C-SH2 domain E139D 0.563 | [1] 0.803 | SHP2 N-SH2 domain L43F 0.783 | SHP2 N-SH2 domain T42A 0.839 | SHP2 N-SH2 domain T52S 0.603 | [2] 0.789

AGLEEYSAMRD [HRAS_Y64_Q61L]
inactive: SHP2 C-SH2 domain E139D 0.658 | [1] 0.607 | SHP2 N-SH2 domain L43F 0.626 | SHP2 N-SH2 domain T42A 0.525 | SHP2 N-SH2 domain T52S 0.659 | [2] 0.737
